# Assay results: PubChem BioAssay AID2112 (National Center for Advancing Translational Sciences (NCATS), 2009)
# Values joined by “and” are separate entries in the source; they are usually repeats but may differ in a detail not shown here. Equal entries are not always repeated. Screen size: about 240,000 compounds; about 15 (0.006%) were called active. Inconclusive means that the source gave no clear call. Such entries were picked first, then a sample of the others. The call rests on the fitted dose curve; in most records, active means well fitted inhibition curve with a large enough effect; inconclusive means small, poorly fitted or top-dose-only effect, or effect the other way, or another doubt; inactive means no such curve, though single readings can be large or run the other way. Potencies of inconclusive entries are doubtful fits and often do not repeat.
# Molecular target: Lysosomal alpha-glucosidase (Homo sapiens) (UniProt P10253)
# Assay: qHTS Assay for Inhibitors and Activators of Human alpha-Glucosidase From Spleen Homogenate;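 on activity change, negative = inhibition: 0% = enzyme with vehicle and -100% = no enzyme basal signal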
# Conditions: 4-MU-alpha-glucoside fluorescence; series mostly up to 79.9 µM
# How it was run: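 Compounds were titrated against alpha-glucosidase in spleen homogenate at pH 5.0, with 1 mM 4-methylumbelliferyl substrate for 40 min at 37 C. Reactions were quenched with pH 10 NaOH/glycine and fluorescence measured.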
# Potency means the concentration at half of the fitted maximal effect; tags describe the fitted curve by direction and shape.
Compound,Potency,"activity change, negative = inhibition"
N#Cc1c(-c2cccc(Br)c2)cc(-c2ccco2)[nH]c1=O,"inconclusive: 50.1 µM [activator, single point]",
NS(=O)(=O)c1ccc(N2N=C(c3ccccc3)CC2c2ccc(F)cc2)cc1 (centres undefined),"inconclusive: 31.6 µM [activator, partial curve]",
CC(C)OC(=O)c1c(N)n(CCCN2CCOCC2)c2nc3ccccc3nc12,"inconclusive: 31.6 µM [activator, partial curve]",
CNc1ccc(-c2nc3ccccc3s2)cc1,"inconclusive: 35.5 µM [activator, partial curve]",
O=C(NCC(=O)N(Cc1ccccc1)C(C(=O)NC1CCCCC1)c1ccco1)c1ccco1 (centres undefined),inactive,
CCc1cc2c(CN3CCN(C)CC3)cc(=O)oc2cc1O,"inconclusive: 39.8 µM [activator, partial curve]",
COC(=O)Cc1cc(=O)oc2cc(O)ccc12,"inconclusive: 28.2 µM [activator, partial curve]",
COc1cc2ccc(=O)oc2cc1O,"inconclusive: 7.08 µM [activator, partial curve] and inconclusive: 35.5 µM [activator, partial curve] and inconclusive: 44.7 µM [activator, partial curve]",
CCOC(=O)c1cc2c(=O)n3ccccc3nc2n(CCCOC)c1=NC(=O)C(C)(C)C,"inconclusive: 11.2 µM [activator, partial curve]",
O=C(COC(=O)c1ccccc1Br)NCCc1ccc(F)cc1,"inconclusive: 12.6 µM [inhibitor, partial curve]",
CC(=O)/C(=N/Nc1ccccc1C)N1CCOCC1,inactive,
Cc1c(-c2cccc(NC(=O)c3cccs3)c2)nc2ncccn12,"inconclusive: 35.5 µM [activator, partial curve]",
C=CCn1c(N)c(C(=O)OC(C)CC)c2nc3ccccc3nc21 (centres undefined),"inconclusive: 39.8 µM [activator, partial curve]",
CCN1CCN(CCCNC(=O)c2cc3cc4ccc(OC)cc4nc3o2)CC1,"inconclusive: 35.5 µM [activator, partial curve]",
Cc1ccc(-c2cc(-c3ccc4c(c3)OCO4)c(C#N)c(N)n2)o1,"inconclusive: 39.8 µM [activator, partial curve]",
C=CC[C@@H]1C=C[C@H](O/N=C(\C)CCN2CCCc3nc(C)c(C)cc32)[C@H](CO)O1,,inactive: 5.47% [at 17.4 µM]
C[C@@H](N)CCCP(=O)(O)O,inactive,
COc1ccc(-n2cnnc2SCC(=O)N2CCN(S(=O)(=O)c3ccccc3)CC2)cc1,"inconclusive: 20 µM [inhibitor, partial curve]",
CC1CCC2C(C)C(=O)OC3O[C@]4(C)CCC1[C@@]32OO4 (some centres undefined),"inconclusive: 44.7 µM [inhibitor, partial curve]",
Cc1onc(-c2c(F)cccc2Cl)c1C(=O)N1CCN(S(C)(=O)=O)CC1,"inconclusive: 11.2 µM [inhibitor, single point]",

Compound,Potency,"activity change, negative = inhibition"
CCSc1nc2ccccc2n1C(=O)Oc1ccccc1,"inconclusive: 0.178 µM [inhibitor, full curve, poor fit]",
CN(C)CCCNS(=O)(=O)c1ccc(N2CCC(c3ccc(Cl)cc3)=N2)cc1,"inconclusive: 17.8 µM [activator, partial curve]",
COc1cccc(NC(=O)CN2C(=O)C3(OCCCO3)c3ccccc32)c1,inactive,
CC(C)NC(=S)N/N=C/c1cccnc1,"inconclusive: 1 µM [inhibitor, full curve, poor fit]",
c1ccc(Cn2c(-c3ccco3)nc3nc4ccccc4nc32)cc1,"inconclusive: 39.8 µM [activator, partial curve]",
O=C1C=C[C@@H](O)[C@H]2[C@@H]3C(=O)N(Cc4ccc5c(c4)OCO5)C(=O)[C@@H]3CC[C@H]12,,inactive: -1.36% [at 17.4 µM]
O=c1oc2cc(Oc3c([N+](=O)[O-])cc(C(F)(F)F)cc3[N+](=O)[O-])ccc2c2c1CCCC2,"inconclusive: 28.2 µM [activator, single point]",
COc1ccccc1-n1c(N)c(C(N)=O)sc1=S,"inconclusive: 44.7 µM [inhibitor, single point]",
O=C(Nc1ccc(N2CCCC(O)C2)cc1)c1snc2c(=O)[nH]cnc12 (centres undefined),"inconclusive: 0.891 µM [inhibitor, single point]",
CC1(C)CC(=O)C=C(NNC(=O)c2cccnc2)C1,"inconclusive: 35.5 µM [inhibitor, single point]",
NC(=S)c1cc2ccc(O)cc2oc1=O,"inconclusive: 25.1 µM [activator, partial curve]",
CCCNC1=C(C)C(=O)CC1,"inconclusive: 12.6 µM [inhibitor, partial curve, poor fit]",
CNc1nc2sc3c(c2c(=O)n1C)CC(C)(C)SC3,"inconclusive: 50.1 µM [activator, single point]",
CN(c1ccccc1)S(=O)(=O)c1ccc(C(=O)NCc2cccs2)cc1,inactive,
CC(C)OCCCn1c(=NC(=O)c2ccncc2)c(C#N)cc2c(=O)n3ccccc3nc21,"inconclusive: 35.5 µM [activator, partial curve]",
Cc1cccc(Cn2c(N3CCCCC3C)nc3c2c(=O)[nH]c(=O)n3C)c1 (centres undefined),"inconclusive: 0.794 µM [inhibitor, full curve, poor fit]",
CCCCCCCC/C=C\CCCCCCCC(=O)NCCCC(=O)O,inactive,
COc1ccccc1N=c1oc2cc(O)ccc2cc1C(=O)NCC1CCCO1 (centres undefined),"inconclusive: 31.6 µM [activator, partial curve]",
CCSC[C@H](NC(=O)[C@H](C)NC(=O)[C@@H](N)Cc1ccc(O)cc1)C(=O)N[C@@H](CC(=O)O)C(=O)N[C@H](C(=O)N[C@@H](C)C(=O)N[C@H](C(=O)N[C@@H](CSCC)C(=O)N[C@H](C(=O)N[C@H](C(=O)N[C@@H](Cc1cnc[nH]1)C(=O)N[C@@H](CCCNC(=N)N)C(=O)N[C@@H](CC(C)C)C(=O)N[C@@H](C)C(=O)NCC(=O)N[C@@H](CC(C)C)C(=O)N[C@@H](CC(C)C)C(=O)N[C@@H](CO)C(=O)N[C@@H](CCCNC(=N)N)C(=O)N[C@@H](CO)C(=O)NCC(=O)NCC(=O)N[C@H](C(=O)N[C@H](C(=O)N[C@@H](CCCCN)C(=O)N[C@@H](CC(N)=O)C(=O)N[C@@H](CC(N)=O)C(=O)N[C@@H](Cc1ccccc1)C(=O)N[C@H](C(=O)N1CCC[C@H]1C(=O)N[C@H](C(=O)N[C@@H](CC(N)=O)C(=O)N[C@H](C(=O)NCC(=O)N[C@@H](CO)C(=O)N[C@@H](CCCCN)C(=O)N[C@@H](C)C(=O)N[C@@H](Cc1ccccc1)C(N)=O)C(C)C)[C@@H](C)O)C(C)C)C(C)C)C(C)C)[C@@H](C)O)C(C)C)[C@@H](C)O)[C@@H](C)O,"inconclusive: 12.6 µM [inhibitor, partial curve]",
